In the supplement of paper PMC8728848:
This is one part of the list.

Assays:
Test in all cases: glycan array binding signal (z-score within array); higher = stronger binding
Settings in all cases: glycan notation: IUPAC condensed, linker removed
[1] = molecular target: Neu5Ac(a2-6)Gal(b1-4)GlcNAc(b1-2)Man(a1-3)[Man(a1-6)]Man(b1-4)GlcNAc(b1-4)GlcNAc
In short: (§1)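 Glycan array data came from 3228 arrays in the Consortium for Functional Glycomics database, and only arrays with an available protein sequence were kept. Glycan names were put into IUPAC-condensed notation, and columns mapping to the same glycan were averaged. The binding signal is a within-array Z-score, averaged across arrays of one protein sequence run at different concentrations or buffers and across linkers. A negative Z-score can be read as non-binding.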

[2] = molecular target: Neu5Ac(a2-6)Gal(b1-4)GlcNAc(b1-2)Man(a1-3)[Neu5Ac(a2-6)Gal(b1-4)GlcNAc(b1-2)Man(a1-6)]Man(b1-4)GlcNAc(b1-4)GlcNAc
In short: as §1

[3] = molecular target: Neu5Ac(a2-6)Gal(b1-4)GlcNAc(b1-2)Man(a1-6)Man(b1-4)GlcNAc(b1-4)GlcNAc
In short: as §1

[4] = molecular target: Neu5Ac(a2-6)Gal(b1-4)GlcNAc(b1-2)Man(a1-6)[Gal(b1-4)GlcNAc(b1-2)Man(a1-3)]Man(b1-4)GlcNAc(b1-4)GlcNAc
In short: as §1

[5] = molecular target: Neu5Ac(a2-6)Gal(b1-4)GlcNAc(b1-2)Man(a1-6)[GlcNAc(b1-2)Man(a1-3)]Man(b1-4)GlcNAc(b1-4)GlcNAc
In short: as §1

[6] = molecular target: Neu5Ac(a2-6)Gal(b1-4)GlcNAc(b1-2)Man(a1-6)[Man(a1-3)]Man(b1-4)GlcNAc(b1-4)GlcNAc
In short: as §1

[7] = molecular target: Neu5Ac(a2-6)Gal(b1-4)GlcNAc(b1-3)Gal(b1-3)GlcNAc
In short: as §1

[8] = molecular target: Neu5Ac(a2-6)Gal(b1-4)GlcNAc(b1-3)Gal(b1-4)GlcNAc
In short: as §1

[9] = molecular target: Neu5Ac(a2-6)Gal(b1-4)GlcNAc(b1-3)Gal(b1-4)GlcNAc(b1-3)Gal(b1-4)GlcNAc
In short: as §1

[10] = molecular target: Neu5Ac(a2-6)Gal(b1-4)GlcNAc(b1-3)Gal(b1-4)[Fuc(a1-3)]GlcNAc(b1-3)Gal(b1-4)[Fuc(a1-3)]GlcNAc
In short: as §1

[11] = molecular target: Neu5Ac(a2-6)Gal(b1-4)GlcNAc(b1-3)GalNAc
In short: as §1

[12] = molecular target: Neu5Ac(a2-6)Gal(b1-4)GlcNAc6S
In short: as §1

Neu5Ac(a2-6)GalNAc = molecular target: Neu5Ac(a2-6)GalNAc
In short: as §1

[13] = molecular target: Neu5Ac(a2-6)GalNAc(b1-4)GlcNAc
In short: as §1

[14] = molecular target: Neu5Ac(a2-6)GlcNAc(b1-4)GlcNAc
In short: as §1

[15] = molecular target: Neu5Ac(a2-6)GlcNAc(b1-4)GlcNAc(b1-4)GlcNAc
In short: as §1

Neu5Ac(a2-8)Neu5Ac = molecular target: Neu5Ac(a2-8)Neu5Ac
In short: as §1

[16] = molecular target: Neu5Ac(a2-8)Neu5Ac(a2-3)Gal(b1-4)Glc
In short: as §1

[17] = molecular target: Neu5Ac(a2-8)Neu5Ac(a2-3)[GalNAc(b1-4)]Gal(b1-4)Glc
In short: as §1

[18] = molecular target: Neu5Ac(a2-8)Neu5Ac(a2-8)Neu5Ac
In short: as §1

[19] = molecular target: Neu5Ac(a2-8)Neu5Ac(a2-8)Neu5Ac(a2-3)Gal(b1-4)Glc
In short: as §1

[20] = molecular target: Neu5Ac(a2-8)Neu5Ac(a2-8)Neu5Ac(a2-3)[GalNAc(b1-4)]Gal(b1-4)Glc
In short: as §1

[21] = molecular target: Neu5Ac(a2-8)Neu5Ac(a2-8)Neu5Ac(a2-8)Neu5Ac(a2-3)[GalNAc(b1-4)]Gal(b1-4)Glc
In short: as §1

[22] = molecular target: Neu5Ac(b2-6)Gal(b1-4)GlcNAc
In short: as §1

Neu5Ac(b2-6)GalNAc = molecular target: Neu5Ac(b2-6)GalNAc
In short: as §1

[23] = molecular target: Neu5Ac9Ac(a2-3)Gal(b1-3)GlcNAc
In short: as §1

[24] = molecular target: Neu5Ac9Ac(a2-3)Gal(b1-4)GlcNAc
In short: as §1

[25] = molecular target: Neu5Ac9Ac(a2-6)Gal(b1-4)GlcNAc
In short: as §1

[26] = molecular target: Neu5Gc(a2-3)Gal(b1-3)GlcNAc
In short: as §1

[27] = molecular target: Neu5Gc(a2-3)Gal(b1-3)[Fuc(a1-4)]GlcNAc
In short: as §1

Neu5Gc(a2-3)Gal(b1-4)Glc = molecular target: Neu5Gc(a2-3)Gal(b1-4)Glc
In short: as §1

[28] = molecular target: Neu5Gc(a2-3)Gal(b1-4)GlcNAc
In short: as §1

[29] = molecular target: Neu5Gc(a2-3)Gal(b1-4)[Fuc(a1-3)]GlcNAc
In short: as §1

[30] = molecular target: Neu5Gc(a2-6)Gal(b1-4)GlcNAc
In short: as §1

Neu5Gc(a2-6)GalNAc = molecular target: Neu5Gc(a2-6)GalNAc
In short: as §1

[31] = molecular target: Neu5Gc(b2-6)Gal(b1-4)GlcNAc
In short: as §1

B1: Tachylectin-2 (Tachypleus tridentatus), TAL2_TACTR (protein)
chain: VGGESMLRGVYQDKFYQGTYPQNKNDNWLARATLIGKGGWSNFKFLFLSPGGELYGVLNDKIYKGTPPTHDNDNWMGRAKKIGNGGWNQFQFLFFDPNGYLYAVSKDKLYKASPPQSDTDNWIARATEIGSGGWSGFKFLFFHPNGYLYAVHGQQFYKALPPVSNQDNWLARATKIGQGGWDTFKFLFFSSVGTLFGVQGGKFYEDYPPSYAHDNWLARAKLIGNGGWDDFRFLFF
- glycan array binding signal (z-score) [1]: -0.295
- glycan array binding signal (z-score) [2]: -0.245
- glycan array binding signal (z-score) [3]: -0.295
- glycan array binding signal (z-score) [4]: -0.344
- glycan array binding signal (z-score) [5]: -0.342
- glycan array binding signal (z-score) [6]: -0.294
- glycan array binding signal (z-score) [7]: -0.297
- glycan array binding signal (z-score) [8]: -0.249
- glycan array binding signal (z-score) [9]: -0.294
- glycan array binding signal (z-score) [10]: -0.327
- glycan array binding signal (z-score) [11]: -0.296
- glycan array binding signal (z-score) [12]: -0.143
- glycan array binding signal (z-score) (Neu5Ac(a2-6)GalNAc): 3.68
- glycan array binding signal (z-score) [13]: -0.011
- glycan array binding signal (z-score) [14]: -0.293
- glycan array binding signal (z-score) [15]: -0.294
- glycan array binding signal (z-score) (Neu5Ac(a2-8)Neu5Ac): -0.05
- glycan array binding signal (z-score) [16]: -0.15
- glycan array binding signal (z-score) [17]: -0.349
- glycan array binding signal (z-score) [18]: -0.333
- glycan array binding signal (z-score) [19]: -0.333
- glycan array binding signal (z-score) [20]: -0.309
- glycan array binding signal (z-score) [21]: -0.334
- glycan array binding signal (z-score) [22]: -0.155
- glycan array binding signal (z-score) (Neu5Ac(b2-6)GalNAc): 0.566
- glycan array binding signal (z-score) [23]: -0.296
- glycan array binding signal (z-score) [24]: -0.293
- glycan array binding signal (z-score) [25]: -0.074
- glycan array binding signal (z-score) [26]: -0.291
- glycan array binding signal (z-score) [27]: -0.316
- glycan array binding signal (z-score) (Neu5Gc(a2-3)Gal(b1-4)Glc): -0.35
- glycan array binding signal (z-score) [28]: -0.296
- glycan array binding signal (z-score) [29]: -0.122
- glycan array binding signal (z-score) [30]: -0.202
- glycan array binding signal (z-score) (Neu5Gc(a2-6)GalNAc): 1.62
- glycan array binding signal (z-score) [31]: -0.055
